Laboratory results: the supplement of paper PMC12067230
Single values of this set are uncertain.

Experiment: amyloid nucleation score relative to library mode (yeast Sup35 reporter selection) (log enrichment difference); higher = more amyloid nucleation; sequences are the first 22 residues of the Bri2 peptide extended by up to 12 random residues
Settings: random library (experiment): 1;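 active = nucleation score significantly above 0 at FDR 0.05; inactive = not significantly above 0 or absent from output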
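Note: [psi-pin-] Saccharomyces cerevisiae expressing SupN fusions, induced by 100 µM Cu2SO4, selected 7 d at 30 °C without adenine and uracil, scored by deep sequencing of output versus input.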

| Sequence | amyloid nucleation score |
| --- | --- |
| EASNCFAIRHFENKFAVETLICKLLCTKYIVVLS | inactive |
| EASNCFAIRHFENKFAVETLICMSW | inactive |
| EASNCFAIRHFENKFAVETLICITAAEGQRALMP | inactive |
| EASNCFAIRHFENKFAVETLICGLTVMQRMCDVQ | inactive |
| EASNCFAIRHFENKFAVETLICHFCGARGPVAVL | 0 |
| EASNCFAIRHFENKFAVETLICYEGSSPG | inactive |
| EASNCFAIRHFENKFAVETLICLLMNRMRDSVVD | inactive |
| EASNCFAIRHFENKFAVETLICWMVWCSRDADS | 4.28 |
| EASNCFAIRHFENKFAVETLICRST | inactive |
| EASNCFAIRHFENKFAVETLICACVFARQVVKGV | inactive |
| EASNCFAIRHFENKFAVETLICNALSLQSCSALR | 6.11 |
| EASNCFAIRHFENKFAVETLICGEMLNWRSYVPW | 4.43 |
| EASNCFAIRHFENKFAVETLICVSVLVSDMDTLM | inactive |
| EASNCFAIRHFENKFAVETLICAVLNDVYISWKR | inactive |
| EASNCFAIRHFENKFAVETLICVLI | 3.9 |
| EASNCFAIRHFENKFAVETLICMFSRGYQLVIAW | inactive |
| EASNCFAIRHFENKFAVETLICCICVLCSRTFS | 3.38 |
| EASNCFAIRHFENKFAVETLICAFMLLRPRWEGV | inactive |
| EASNCFAIRHFENKFAVETLICWSFKCYLFRLGW | -0.227 |
| EASNCFAIRHFENKFAVETLICRIIGPCYRDDLR | 2.49 |
| EASNCFAIRHFENKFAVETLICVWCRILRCGRW | 0.6 |
| EASNCFAIRHFENKFAVETLICALLSDSDTVSGR | inactive |
| EASNCFAIRHFENKFAVETLICRCTLMIYSGVLS | inactive |
| EASNCFAIRHFENKFAVETLICRDLSLRSRGPDR | 4.31 |
| EASNCFAIRHFENKFAVETLICNLKFNDMTACLC | 5.5 |

| Sequence | amyloid nucleation score |
| --- | --- |
| EASNCFAIRHFENKFAVETLICCGVSAMPSNTSH | 8.81 |
| EASNCFAIRHFENKFAVETLICFSNGMRVLARRQ | -0.534 |
| EASNCFAIRHFENKFAVETLICVRTTYLRMSCTG | inactive |
| EASNCFAIRHFENKFAVETLICGSVVSCTRPQYL | 6.65 |
| EASNCFAIRHFENKFAVETLICEMLERRY | 3.4 |
| EASNCFAIRHFENKFAVETLICGDPVKASVMYTP | -0.0479 |
| EASNCFAIRHFENKFAVETLICGRMLVVVMRYAV | -0.392 |
| EASNCFAIRHFENKFAVETLICQCSQRCTGQLG | 5.1 |
| EASNCFAIRHFENKFAVETLICVAGVERLDGGDA | inactive |
| EASNCFAIRHFENKFAVETLICHFCLPMINRIDC | inactive |
| EASNCFAIRHFENKFAVETLICADPSRMEREGRE | inactive |
| EASNCFAIRHFENKFAVETLICGGTNLIVWTLVG | 3.84 |
| EASNCFAIRHFENKFAVETLICYTVKKTSFGVRE | 1.87 |
| EASNCFAIRHFENKFAVETLICFIRQFRGVRSYR | 4.8 |
| EASNCFAIRHFENKFAVETLICDRGDHNGCNVRR | inactive |
| EASNCFAIRHFENKFAVETLICGNGETLQWLGLS | inactive |
| EASNCFAIRHFENKFAVETLICVRPQRMANISVG | inactive |
| EASNCFAIRHFENKFAVETLICCPLWHSTRINTG | 8.59 |
| EASNCFAIRHFENKFAVETLICHSFMPEKSCEKQ | 5.51 |
| EASNCFAIRHFENKFAVETLICWTSLLSPYDWWC | inactive |
| EASNCFAIRHFENKFAVETLICLYFGHGLLAMSQ | inactive |
| EASNCFAIRHFENKFAVETLICCHTYMRWEKQCD | 0.703 |
| EASNCFAIRHFENKFAVETLICAVSFVVRRGDCG | 2.2 |
| EASNCFAIRHFENKFAVETLICWVKGSCRGLGKM | inactive |
| EASNCFAIRHFENKFAVETLICMRCVLFPCVQLM | inactive |

Same assay, conditions: random library (experiment): 2

| Sequence | amyloid nucleation score |
| --- | --- |
| EASNCFAIRHFENKFAVETLICGQGIWNVWFEGP | 7.26 |
| EASNCFAIRHFENKFAVETLICWNPVFTWMWCMM | inactive |
| EASNCFAIRHFENKFAVETLICVILAFKLVNAVL | inactive |
| EASNCFAIRHFENKFAVETLICLEGTELWLSPS | inactive |
| EASNCFAIRHFENKFAVETLICRSRL | inactive |
| EASNCFAIRHFENKFAVETLICVDFMKSRYIIGC | inactive |
| EASNCFAIRHFENKFAVETLICLVCNLRFATYIG | inactive |
| EASNCFAIRHFENKFAVETLICKSEGFVSAVMFN | inactive |
| EASNCFAIRHFENKFAVETLICECD | inactive |
| EASNCFAIRHFENKFAVETLICYDVELVSLIRYL | inactive |
| EASNCFAIRHFENKFAVETLICDICENRHVWNVN | inactive |
| EASNCFAIRHFENKFAVETLICCFLR | 4.77 |
| EASNCFAIRHFENKFAVETLICLVVNGYTQWCKS | 1.55 |
| EASNCFAIRHFENKFAVETLICIGSNILVMHASG | 5.31 |
| EASNCFAIRHFENKFAVETLICLSRSWYISGMAL | inactive |
| EASNCFAIRHFENKFAVETLICPSD | inactive |
| EASNCFAIRHFENKFAVETLICVFVCTNS | 5.7 |
| EASNCFAIRHFENKFAVETLICDDLNYSMVLCYS | inactive |
| EASNCFAIRHFENKFAVETLICVGWCMKVGRYGA | 4.33 |
| EASNCFAIRHFENKFAVETLICWAGF | 4.75 |
| EASNCFAIRHFENKFAVETLICGAY | 0.625 |
| EASNCFAIRHFENKFAVETLICFLYTSLTYVSVE | inactive |
| EASNCFAIRHFENKFAVETLICMNFLVSIVIWVK | inactive |

| Sequence | amyloid nucleation score |
| --- | --- |
| EASNCFAIRHFENKFAVETLICLMVWAYQKYMNG | inactive |
| EASNCFAIRHFENKFAVETLICVMVCHHWRPNAS | 1.78 |
| EASNCFAIRHFENKFAVETLICCFYLG | 7.56 |
| EASNCFAIRHFENKFAVETLICFNFCSL | 8.38 |
| EASNCFAIRHFENKFAVETLICWILITAGVGNLQ | 3.06 |
| EASNCFAIRHFENKFAVETLICMFFMVSLGTVAM | inactive |
| EASNCFAIRHFENKFAVETLICMLYLSLFDFNCR | inactive |
| EASNCFAIRHFENKFAVETLICRILSSAYFGFSG | inactive |
| EASNCFAIRHFENKFAVETLICYYRRFAYGCYCV | inactive |
| EASNCFAIRHFENKFAVETLICGSPCERMTVFVK | 0.274 |
| EASNCFAIRHFENKFAVETLICYIQS | 7 |
| EASNCFAIRHFENKFAVETLICWE | -0.131 |
| EASNCFAIRHFENKFAVETLICFDYTLLLRMGRR | inactive |
| EASNCFAIRHFENKFAVETLICTRGYIHNIDGGD | 4.38 |
| EASNCFAIRHFENKFAVETLICKSCV | inactive |
| EASNCFAIRHFENKFAVETLICLLFFSSIFVEQS | inactive |
| EASNCFAIRHFENKFAVETLICYMNWRYWAWSVN | inactive |
| EASNCFAIRHFENKFAVETLICIIVTNVCCFERC | inactive |
| EASNCFAIRHFENKFAVETLICNRWESHASFIWA | inactive |
| EASNCFAIRHFENKFAVETLICILYLLKRGDVSF | inactive |
| EASNCFAIRHFENKFAVETLICNLCYFNDKWPVF | inactive |
| EASNCFAIRHFENKFAVETLICVDPVRHSCCARH | -0.351 |

Same assay, conditions: random library (experiment): 3

| Sequence | amyloid nucleation score |
| --- | --- |
| EASNCFAIRHFENKFAVETLICCKEPWHVESYNG | 5.15 |
| EASNCFAIRHFENKFAVETLICLVSWNVEEERGL | inactive |
| EASNCFAIRHFENKFAVETLICNLM | 9.24 |
| EASNCFAIRHFENKFAVETLICCRVCLFNCATYS | 4.52 |
| EASNCFAIRHFENKFAVETLICLCEKGSVCIQAR | inactive |
| EASNCFAIRHFENKFAVETLICCSGCLRRLVLGV | inactive |
| EASNCFAIRHFENKFAVETLICTRDGIPFDTAYA | inactive |
| EASNCFAIRHFENKFAVETLICGDGLSLPLRRVA | inactive |
| EASNCFAIRHFENKFAVETLICLVRWWCAVKLRS | inactive |
| EASNCFAIRHFENKFAVETLICQQEGRQDGQWGR | inactive |
| EASNCFAIRHFENKFAVETLICYYESSN | 4.66 |
| EASNCFAIRHFENKFAVETLICFGSGFEV | 5.71 |
| EASNCFAIRHFENKFAVETLICLVHNDNRNANMA | 7.41 |
| EASNCFAIRHFENKFAVETLICLGCRQLWLGGVR | inactive |
| EASNCFAIRHFENKFAVETLICMSGERVRQQVRW | 3.33 |
| EASNCFAIRHFENKFAVETLICGEEIRLAKRPGN | 3.03 |
| EASNCFAIRHFENKFAVETLICLVEAVLTRSKML | inactive |
| EASNCFAIRHFENKFAVETLICRGRSTASAGPSM | -0.0945 |
| EASNCFAIRHFENKFAVETLICCVREVIQVRLHR | inactive |
| EASNCFAIRHFENKFAVETLICVGCDCRGWVHGP | 8.53 |
| EASNCFAIRHFENKFAVETLICLLTRKVL | inactive |
| EASNCFAIRHFENKFAVETLICRIGRGWMSTGCL | inactive |
| EASNCFAIRHFENKFAVETLICAKFASSARRLGA | -0.0441 |
| EASNCFAIRHFENKFAVETLICAAEVHA | inactive |
